Several values for one entry are separate records, joined by “and”; a condition that tells them apart may be missing. Equal entries are not always repeated. The whole screen tested about 16,000 compounds, of which about 40 (0.2%) were called active. Inconclusive results (about 1%) are left out. Calls come from the whole dose curve; as a rule, active = well fitted activation curve with a large enough effect; inconclusive = small, poorly fitted or top-dose-only effect, or another doubt; inactive = no such curve, though single readings can be large or run the other way. This is one part of the list.
% is set by controls: 0 for no effect and ±100 for the full control effect.

Sequence of UniProt Q8WZA2 (Q8WZA2 whole entry, looked up): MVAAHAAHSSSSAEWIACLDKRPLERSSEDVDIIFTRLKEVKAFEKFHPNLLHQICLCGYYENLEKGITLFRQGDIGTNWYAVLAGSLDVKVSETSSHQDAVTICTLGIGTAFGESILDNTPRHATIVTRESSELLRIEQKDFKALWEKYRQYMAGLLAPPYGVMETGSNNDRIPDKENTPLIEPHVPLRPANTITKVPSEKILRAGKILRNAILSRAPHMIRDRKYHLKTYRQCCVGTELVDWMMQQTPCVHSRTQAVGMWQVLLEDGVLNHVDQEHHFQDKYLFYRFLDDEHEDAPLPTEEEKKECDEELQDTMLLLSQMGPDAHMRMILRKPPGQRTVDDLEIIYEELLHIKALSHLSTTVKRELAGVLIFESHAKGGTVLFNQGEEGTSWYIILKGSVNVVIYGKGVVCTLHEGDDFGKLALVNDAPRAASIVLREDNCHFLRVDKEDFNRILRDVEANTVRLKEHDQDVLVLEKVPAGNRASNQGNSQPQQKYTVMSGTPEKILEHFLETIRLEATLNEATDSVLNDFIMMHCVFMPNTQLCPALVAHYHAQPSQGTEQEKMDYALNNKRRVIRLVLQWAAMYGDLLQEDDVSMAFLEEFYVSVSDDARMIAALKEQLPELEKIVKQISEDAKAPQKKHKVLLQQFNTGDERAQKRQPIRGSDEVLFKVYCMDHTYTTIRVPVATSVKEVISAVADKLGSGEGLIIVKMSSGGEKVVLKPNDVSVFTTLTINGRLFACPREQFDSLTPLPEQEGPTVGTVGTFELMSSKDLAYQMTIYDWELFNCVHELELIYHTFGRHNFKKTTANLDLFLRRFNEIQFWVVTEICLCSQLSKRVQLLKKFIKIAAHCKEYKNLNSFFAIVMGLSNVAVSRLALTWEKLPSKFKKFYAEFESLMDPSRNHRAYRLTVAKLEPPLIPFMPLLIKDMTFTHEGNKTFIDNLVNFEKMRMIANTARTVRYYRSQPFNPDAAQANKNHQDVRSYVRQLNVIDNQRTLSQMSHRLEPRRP

The assay concerns the target Rap guanine nucleotide exchange factor 4 (Homo sapiens) (UniProt Q8WZA2). In words: Validation qHTS for agonist of cAMP-regulated guanine nucleotide exchange factor 4 (EPAC2).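 Note: exchange makes BODIPY-GDP fluorescence drop when released from Rap1B; series mostly up to about 150 µM.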 The conditions noted are these: EPAC2 Rap1B BODIPY-GDP exchange, fluorescence; activation: stronger effect = higher value. The source says:
Principle Investigator: Xiaodong Cheng Ph.D.
The University of Texas Medical Branch, […], TX
In multi-cellular eukaryotic organisms, the effects of cAMP are transduced by two ubiquitously-expressed intracellular cAMP receptors, the classic protein kinase A/cAMP-dependent protein kinase (PKA/cAPK) and the more recently discovered exchange protein directly activated by cAMP/cAMP-regulated guanine nucleotide exchange factor (EPAC/cAMP-GEF). Both PKA and EPAC are ubiquitously expressed in all tissues, and an increase in intracellular cAMP levels will lead to the activation of both PKA and EPAC. Therefore, careful dissections of the individual role and relative contribution of EPAC and PKA within the overall cAMP signaling in various model systems are critical for further elucidating the mechanism of cAMP signaling. To date no EPAC-specific antagonists and agonist, as well as isoform-specific agonists have been reported, and developing EPAC-specific pharmacological probes to determine the physiological functions that EPAC play in the overall cAMP-mediated signaling remains a major challenge within the research field. Furthermore, identified regulators of EPAC may lead to new mechanism-based therapeutic strategies specifically targeting the EPAC / cAMP-signaling components as EPAC has been implicated to play important roles in major human pathological conditions such as diabetes, heart disease, and cancer.
This qHTS will be used to screen the Molecular Libraries Small Molecule Repository (MLSMR) as a concentration-titration series using the NCGC unique quantitative screening (qHTS) platform to find activators for EPAC1. In addition, this assay will also be used as a counterscreen for the EPAC2 qHTS. This fluorescent based assay is developed and validated for EPAC1 that measures exchange using EPAC effector Rap1 complex with BODIPY-GDP, a GDP analog with a tethered fluorophores. Activators are identified by monitoring the change in fluorescence signal as the exchanged free BODIPY-GDP has a reduced fluorescence compared to Rap1-bound BODIPY-GDP. Increase in signal (activation) is the desired outcome for the EPAC1 agonist while no activity in this assay is desired for the EPAC2 agonist counterscreen.
[1] de Rooij, J., Zwartkruis, F. J., Verheijen, M. H., Cool, R. H., Nijman, S. M., Wittinghofer, A., and Bos, J.L. (1998) Nature 396, 474-477.
Briefly, three uL of reagents (100 nM EPAC2, 250 nM RAP1B-BODIPY-GDP, 50 uM GDP) were dispensed into a 1536-well Greiner black solid-bottom medium binding assay plate. Controls and test compounds (23 nL) were transferred to the plate via a Kalypsys pin tool equipped with a 1536-pin array. The plates were centrifuged at 1,000 rpm for 15 seconds followed by 5 minute incubation at room temperature. The assay plates were read at 5 minute intervals for 30 minutes in the ViewLux plate reader using 480nm excitation and 540nm emission filters. The results were normalized to the agonist positive control of 6.5 mM cAMP.
On the technique in general: qHTS replaces the single test concentration by a dilution series.
As for `CC1=CC(=O)c2c(O)cccc2C1=O`, the activation was inactive: 6.77% and inactive: 8.9%.

With `CN1CCc2cc(Cl)c(O)cc2[C@H]2c3ccccc3CC[C@@H]21`, the activation was inactive: -3.95%.

For `O=C(Oc1ccccc1)N1CCC[C@@]2(CCN(Cc3cc(C(F)(F)F)cc(C(F)(F)F)c3)C2)C1`, the activation was inactive: -40%.

For the compound `Cc1ccccc1-n1c(C)nc2ccccc2c1=O`, the activation was inactive: -2.95% and inactive: -13.8%.

`C[C@@]12CCC(OS(=O)(=O)O)C[C@@H]1CCC1C2CC[C@]2(C)C(=O)CCC12` (stereo not given in full): the activation is inactive: -14.6%.

With `NCCc1ccc(S(=O)(=O)F)cc1`, the activation is inactive: -14.3%.

In the case of `CCCCCCCCCCCCCCCCOC[C@@H](COP(=O)([O-])OCC[N+](C)(C)C)OC(C)=O`, the activation is inactive: -1.22%.

On to `C[C@H]1O[C@H](O[C@H]2[C@H](O)[C@@H](O)[C@@H](O)[C@H](O)[C@@H]2O)[C@@H](N)C[C@@H]1NC(=N)C(=O)O`, for which the activation was inactive: -13%.

For the compound `C/C(O)=C(/C#N)C(=O)Nc1cc(Br)ccc1Br`, the activation is inactive: -20.8%.

In the case of `CCN(CC)CCOC(=O)C(C)(c1ccccc1)c1ccccc1`, the activation is inactive: -0.23%.

For the compound `CNC(=O)O/N=C/C(C)(C)SC`, the activation was inactive: -6.87%.

With `NCC(=O)c1cccc([N+](=O)[O-])c1`, the activation was inactive: -19.2%.

In the case of `O=[N+]([O-])c1cc(O)c(O)c([N+](=O)[O-])c1`, the activation is inactive: -31.8% and inactive: -6.99% and inactive: -26.5%.

Take `CN[C@@H]1C[C@@H](c2ccc(Cl)c(Cl)c2)c2ccccc21`: the activation is inactive: -7.46% and inactive: -20.7%.

In the case of `O=C(O)Cc1cccnc1C(=O)O`, the activation is inactive: -1.63% and inactive: -9.86%.

As for `Cc1ccc(-c2nc3ccc(C)cn3c2CC(=O)N(C)C)cc1`, the activation was inactive: -4.72%.

In the case of `Nc1nc(N)nc(NC2CC2)n1`, the activation is inactive: -7.71%.

For the compound `CN(C)CCN(C)CCc1ccc(Cl)c(Cl)c1`, the activation was inactive: -11.7% and inactive: 2.72%.

With `Nc1ccc(N=Nc2ccccc2)cc1`, the activation was inactive: -19.5%.

As to `CCC12C=CCN3CCC4(c5ccc(OC)cc5N(C)C4[C@@](O)(C(=O)OC)C1OC(C)=O)C32` (stereo not given in full), the activation was inactive: -17.6%.

Consider `CN[C@]1(c2ccccc2Cl)CCCCC1=O`, for which the activation was inactive: 4.55%.

As for `C[C@H](N)CN1CCc2ccc(Br)cc21`, the activation was inactive: -31.5%.

Regarding `CC(=O)C1=C(O)C2C3c4c[nH]c5cccc(c45)CC3C(C)(C)N2C1=O` (stereo not given), the activation is inactive: -9.59%.

For `N[C@@H](Cn1ccc(=O)[nH]c1=O)C(=O)O`, the activation is inactive: -10.1%.

For the compound `CCCN(CCC)c1c([N+](=O)[O-])cc(C(F)(F)F)cc1[N+](=O)[O-]`, the activation is inactive: -10.8%.

For the origin of these results see PubChem BioAssay AID1645887 (National Center for Advancing Translational Sciences (NCATS), 2021).
